{"source": "PubChem BioAssay AID1030", "about": "(National Center for Advancing Translational Sciences (NCATS), 2008)", "note": "The campaign covered roughly 220,000 compounds. About 16,000 (7.3%) were called active. Inconclusive results, whose numbers are uncertain, are shown with a selection of clear calls. The call rests on the fitted dose curve; in most records, active means well fitted inhibition curve with a large enough effect (not every such curve was filed as active); inconclusive means small, poorly fitted or top-dose-only effect, or another doubt; inactive means no such curve, though single readings can be large or run the other way. No potency is given beside an inconclusive call; the fits are too rough. Potency means the concentration at half of the fitted maximal effect; tags describe the fitted curve by direction and shape.", "data": [{"molecular_target": "Aldehyde dehydrogenase 1A1 (Homo sapiens) (UniProt P00352)", "sequence (P00352 whole entry, looked up)": "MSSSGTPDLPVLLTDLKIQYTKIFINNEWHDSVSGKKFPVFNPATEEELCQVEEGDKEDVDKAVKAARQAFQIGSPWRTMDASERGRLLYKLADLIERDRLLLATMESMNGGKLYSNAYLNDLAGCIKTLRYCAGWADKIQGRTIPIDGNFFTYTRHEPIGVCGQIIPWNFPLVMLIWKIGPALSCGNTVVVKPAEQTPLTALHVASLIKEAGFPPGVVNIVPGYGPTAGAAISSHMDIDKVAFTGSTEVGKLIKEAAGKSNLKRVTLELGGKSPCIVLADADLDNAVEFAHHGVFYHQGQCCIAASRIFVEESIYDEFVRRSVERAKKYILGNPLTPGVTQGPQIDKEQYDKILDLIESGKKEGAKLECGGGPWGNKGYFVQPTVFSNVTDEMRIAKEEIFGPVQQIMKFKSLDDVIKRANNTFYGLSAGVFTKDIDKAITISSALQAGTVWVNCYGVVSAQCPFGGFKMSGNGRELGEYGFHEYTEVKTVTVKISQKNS", "assay": "qHTS Assay for Inhibitors of Aldehyde Dehydrogenase 1 (ALDH1A1)", "conditions": "Purified ALDH1A1, NADH fluorescence, propionaldehyde substrate; series mostly up to 75.3 µM", "values": [{"smiles": "CN(C)C(=O)c1ccc(-c2ccc3ncnc(N(C)Cc4ccco4)c3c2)cc1", "Potency": "inconclusive [inhibitor, single point]"}, {"smiles": "COc1ccnc(Oc2ccc(F)cc2)c1C(=O)N/C=N/OCc1ccccc1", "Potency": "inconclusive [inhibitor, single point]"}, {"smiles": "CN1CCN(C(=O)C2=C[C@@H](c3ccccc3)C[C@@H](OCc3ccc(CO)cc3)O2)CC1", "Potency": "active: 12.6 µM"}, {"smiles": "COCCOC(=O)c1c(NC(=O)CN2CCCc3ccccc32)sc(C(N)=O)c1C", "Potency": "inactive"}, {"smiles": "CCCCC(CC)C1OCC(C[N+]2(C)CCOCC2)O1", "note": "(configuration not stated)", "Potency": "inactive"}, {"smiles": "O=[N+]([O-])c1cccnc1Sc1n[nH]c(-c2ccc(Cl)cc2)n1", "Potency": "inactive"}, {"smiles": "O=C(COC(=O)C12CC3CC(CC(C3)C1)C2)Nc1ccc([N+](=O)[O-])cc1Br", "Potency": "inactive"}, {"smiles": "CCCCNC(=O)/C(C#N)=C/c1ccc(F)cc1F", "Potency": "inactive"}, {"smiles": "Clc1ccccc1-c1nnc(-c2ccc3c(c2)OCO3)o1", "Potency": "inconclusive [inhibitor, partial curve]"}, {"smiles": "COC(=O)c1cc(C(=O)NCCN2C(=O)S/C(=C\\c3cccs3)C2=O)cc([N+](=O)[O-])c1", "Potency": "inconclusive [inhibitor, single point]"}, {"smiles": "COc1ncc2nc(-c3ccc(Cl)cc3)c(=O)n(C)c2n1", "Potency": "inconclusive [inhibitor, partial curve]"}, {"smiles": "Cc1ccc(N=Nc2ccc(O)c3ncccc23)cc1", "Potency": "inactive"}, {"smiles": "COC(=O)c1ccccc1COn1c(=O)c(C)[n+]([O-])c2ccccc21", "Potency": "active: 22.4 µM"}, {"smiles": "CC(=O)OCCCNc1cc(Sc2ccc(Cl)cc2)c2nonc2c1[N+](=O)[O-]", "Potency": "inconclusive [inhibitor, partial curve]"}, {"smiles": "CN(C)c1ccc(/C=N/N=C(N)N)cc1[N+](=O)[O-]", "Potency": "inactive"}, {"smiles": "Cc1cccn2c(=O)c3cc(C(=O)O)n(C)c3nc12", "Potency": "inconclusive [inhibitor, partial curve]"}, {"smiles": "Cc1ccc(N2CC(C(=O)Nc3ccc(S(=O)(=O)N4CCCC4)cc3)CC2=O)cc1", "note": "(configuration not stated)", "Potency": "inconclusive [inhibitor, single point]"}, {"smiles": "Cc1ccc(C)c(S(=O)(=O)Nc2ccc(O)c(C(=O)O)c2)c1", "Potency": "inconclusive [inhibitor, single point]"}, {"smiles": "O=C(COC(=O)Cn1cnc2ccccc21)NCCc1ccccc1", "Potency": "inactive"}, {"smiles": "Cc1ccc(NC(=O)CCC(=O)O)cc1F", "Potency": "inactive"}, {"smiles": "C=CCSc1nnc(NC(=O)CSc2nc3ccccc3o2)s1", "Potency": "inactive"}, {"smiles": "CCCNc1nc2c(c(=O)n(C)c(=O)n2C)n1Cc1cccc(C)c1", "Potency": "inactive"}]}]}
